# Test results from the supplement of paper PMC8728848.
# This is one part of the list.
# Columns and labels:
# Assay in all cases: glycan array binding signal (z-score within array); higher = stronger binding
# Details in all cases: glycan notation: IUPAC condensed, linker removed
# Neu5Ac(a2-6)Gal(b1-4)Glc = biological target: Neu5Ac(a2-6)Gal(b1-4)Glc
# Method in brief: (§1)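 Negative Z-scores can be read as non-binding. The Z-score is calculated within each array and then averaged across arrays of one protein sequence at different concentrations or buffers and across linkers. Arrays, 3228 in all, were curated from the Consortium for Functional Glycomics database and kept only where the protein sequence was available.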
# [1] = biological target: Neu5Ac(a2-6)Gal(b1-4)GlcNAc
# Method in brief: as §1
# [2] = biological target: Neu5Ac(a2-6)Gal(b1-4)GlcNAc(b1-2)Man(a1-3)Man(b1-4)GlcNAc(b1-4)GlcNAc
# Method in brief: as §1
# [3] = biological target: Neu5Ac(a2-6)Gal(b1-4)GlcNAc(b1-2)Man(a1-3)[Gal(b1-4)GlcNAc(b1-2)Man(a1-6)]Man(b1-4)GlcNAc(b1-4)GlcNAc
# Method in brief: as §1
# [4] = biological target: Neu5Ac(a2-6)Gal(b1-4)GlcNAc(b1-2)Man(a1-3)[GlcNAc(b1-2)Man(a1-6)]Man(b1-4)GlcNAc(b1-4)GlcNAc
# Method in brief: as §1
# [5] = biological target: Neu5Ac(a2-6)Gal(b1-4)GlcNAc(b1-2)Man(a1-3)[GlcNAc(b1-2)Man(b1-4)GlcNAc(b1-2)Man(a1-6)]Man(b1-4)GlcNAc(b1-4)GlcNAc
# Method in brief: as §1
# [6] = biological target: Neu5Ac(a2-6)Gal(b1-4)GlcNAc(b1-2)Man(a1-3)[Man(a1-6)]Man(b1-4)GlcNAc(b1-4)GlcNAc
# Method in brief: as §1
# [7] = biological target: Neu5Ac(a2-6)Gal(b1-4)GlcNAc(b1-2)Man(a1-3)[Neu5Ac(a2-6)Gal(b1-4)GlcNAc(b1-2)Man(a1-6)]Man(b1-4)GlcNAc(b1-4)GlcNAc
# Method in brief: as §1
# [8] = biological target: Neu5Ac(a2-6)Gal(b1-4)GlcNAc(b1-2)Man(a1-6)Man(b1-4)GlcNAc(b1-4)GlcNAc
# Method in brief: as §1
# [9] = biological target: Neu5Ac(a2-6)Gal(b1-4)GlcNAc(b1-2)Man(a1-6)[Gal(b1-4)GlcNAc(b1-2)Man(a1-3)]Man(b1-4)GlcNAc(b1-4)GlcNAc
# Method in brief: as §1
# [10] = biological target: Neu5Ac(a2-6)Gal(b1-4)GlcNAc(b1-2)Man(a1-6)[GlcNAc(b1-2)Man(a1-3)]Man(b1-4)GlcNAc(b1-4)GlcNAc
# Method in brief: as §1
# [11] = biological target: Neu5Ac(a2-6)Gal(b1-4)GlcNAc(b1-2)Man(a1-6)[Man(a1-3)]Man(b1-4)GlcNAc(b1-4)GlcNAc
# Method in brief: as §1
# [12] = biological target: Neu5Ac(a2-6)Gal(b1-4)GlcNAc(b1-3)Gal(b1-3)GlcNAc
# Method in brief: as §1
# [13] = biological target: Neu5Ac(a2-6)Gal(b1-4)GlcNAc(b1-3)Gal(b1-4)GlcNAc
# Method in brief: as §1
# [14] = biological target: Neu5Ac(a2-6)Gal(b1-4)GlcNAc(b1-3)Gal(b1-4)GlcNAc(b1-3)Gal(b1-4)GlcNAc
# Method in brief: as §1
# [15] = biological target: Neu5Ac(a2-6)Gal(b1-4)GlcNAc(b1-3)Gal(b1-4)[Fuc(a1-3)]GlcNAc(b1-3)Gal(b1-4)[Fuc(a1-3)]GlcNAc
# Method in brief: as §1
# [16] = biological target: Neu5Ac(a2-6)Gal(b1-4)GlcNAc(b1-3)GalNAc
# Method in brief: as §1
# [17] = biological target: Neu5Ac(a2-6)Gal(b1-4)GlcNAc6S
# Method in brief: as §1
# Neu5Ac(a2-6)GalNAc = biological target: Neu5Ac(a2-6)GalNAc
# Method in brief: as §1
# [18] = biological target: Neu5Ac(a2-6)GalNAc(b1-4)GlcNAc
# Method in brief: as §1
# [19] = biological target: Neu5Ac(a2-6)GlcNAc(b1-4)GlcNAc
# Method in brief: as §1
# [20] = biological target: Neu5Ac(a2-6)GlcNAc(b1-4)GlcNAc(b1-4)GlcNAc
# Method in brief: as §1
# Neu5Ac(a2-8)Neu5Ac = biological target: Neu5Ac(a2-8)Neu5Ac
# Method in brief: as §1
# [21] = biological target: Neu5Ac(a2-8)Neu5Ac(a2-3)Gal(b1-4)Glc
# Method in brief: as §1
# [22] = biological target: Neu5Ac(a2-8)Neu5Ac(a2-3)[GalNAc(b1-4)]Gal(b1-4)Glc
# Method in brief: as §1
# [23] = biological target: Neu5Ac(a2-8)Neu5Ac(a2-8)Neu5Ac
# Method in brief: as §1
# [24] = biological target: Neu5Ac(a2-8)Neu5Ac(a2-8)Neu5Ac(a2-3)Gal(b1-4)Glc
# Method in brief: as §1
# [25] = biological target: Neu5Ac(a2-8)Neu5Ac(a2-8)Neu5Ac(a2-3)[GalNAc(b1-4)]Gal(b1-4)Glc
# Method in brief: as §1
# [26] = biological target: Neu5Ac(a2-8)Neu5Ac(a2-8)Neu5Ac(a2-8)Neu5Ac(a2-3)[GalNAc(b1-4)]Gal(b1-4)Glc
# Method in brief: as §1
# [27] = biological target: Neu5Ac(b2-6)Gal(b1-4)GlcNAc
# Method in brief: as §1
# Neu5Ac(b2-6)GalNAc = biological target: Neu5Ac(b2-6)GalNAc
# Method in brief: as §1
# [28] = biological target: Neu5Ac9Ac(a2-3)Gal(b1-3)GlcNAc
# Method in brief: as §1
# [29] = biological target: Neu5Ac9Ac(a2-3)Gal(b1-4)GlcNAc
# Method in brief: as §1
# [30] = biological target: Neu5Ac9Ac(a2-6)Gal(b1-4)GlcNAc
# Method in brief: as §1
# [31] = biological target: Neu5Gc(a2-3)Gal(b1-3)GlcNAc
# Method in brief: as §1
# [32] = biological target: Neu5Gc(a2-3)Gal(b1-3)[Fuc(a1-4)]GlcNAc
# Method in brief: as §1
# Neu5Gc(a2-3)Gal(b1-4)Glc = biological target: Neu5Gc(a2-3)Gal(b1-4)Glc
# Method in brief: as §1
# [33] = biological target: Neu5Gc(a2-3)Gal(b1-4)GlcNAc
# Method in brief: as §1
# [34] = biological target: Neu5Gc(a2-3)Gal(b1-4)[Fuc(a1-3)]GlcNAc
# Method in brief: as §1
# [35] = biological target: Neu5Gc(a2-6)Gal(b1-4)GlcNAc
# Method in brief: as §1
# Neu5Gc(a2-6)GalNAc = biological target: Neu5Gc(a2-6)GalNAc
# Method in brief: as §1
# [36] = biological target: Neu5Gc(b2-6)Gal(b1-4)GlcNAc
# Method in brief: as §1
binder,measurement,setting,value
"GIINTLQKYYCRVRGGRCAVLSCLPKEEQIGKCSTRGRKCCRRKK [Beta-Defensin 3 (Homo sapiens), P81534]",glycan array binding signal (z-score),Neu5Ac(a2-6)Gal(b1-4)Glc,-0.294
same,glycan array binding signal (z-score),[1],-0.021
same,glycan array binding signal (z-score),[2],-0.441
same,glycan array binding signal (z-score),[3],-0.467
same,glycan array binding signal (z-score),[4],-0.585
same,glycan array binding signal (z-score),[5],-0.583
same,glycan array binding signal (z-score),[6],-0.313
same,glycan array binding signal (z-score),[7],-0.472
same,glycan array binding signal (z-score),[8],-0.508
same,glycan array binding signal (z-score),[9],-0.58
same,glycan array binding signal (z-score),[10],-0.404
same,glycan array binding signal (z-score),[11],-0.597
same,glycan array binding signal (z-score),[12],2.47
same,glycan array binding signal (z-score),[13],-0.64
same,glycan array binding signal (z-score),[14],0.135
same,glycan array binding signal (z-score),[15],-0.423
same,glycan array binding signal (z-score),[16],1.54
same,glycan array binding signal (z-score),[17],2.57
same,glycan array binding signal (z-score),Neu5Ac(a2-6)GalNAc,-0.423
same,glycan array binding signal (z-score),[18],-0.594
same,glycan array binding signal (z-score),[19],-0.292
same,glycan array binding signal (z-score),[20],-0.622
same,glycan array binding signal (z-score),Neu5Ac(a2-8)Neu5Ac,-0.345
same,glycan array binding signal (z-score),[21],-0.416
same,glycan array binding signal (z-score),[22],-0.591
same,glycan array binding signal (z-score),[23],-0.341
same,glycan array binding signal (z-score),[24],-0.558
same,glycan array binding signal (z-score),[25],-0.582
same,glycan array binding signal (z-score),[26],-0.409
same,glycan array binding signal (z-score),[27],0.104
same,glycan array binding signal (z-score),Neu5Ac(b2-6)GalNAc,-0.1
same,glycan array binding signal (z-score),[28],-0.107
same,glycan array binding signal (z-score),[29],-0.363
same,glycan array binding signal (z-score),[30],-0.397
same,glycan array binding signal (z-score),[31],0.08
same,glycan array binding signal (z-score),[32],-0.197
same,glycan array binding signal (z-score),Neu5Gc(a2-3)Gal(b1-4)Glc,-0.025
same,glycan array binding signal (z-score),[33],-0.111
same,glycan array binding signal (z-score),[34],-0.09
same,glycan array binding signal (z-score),[35],0.053
same,glycan array binding signal (z-score),Neu5Gc(a2-6)GalNAc,0.608
same,glycan array binding signal (z-score),[36],-0.209
